In PubChem BioAssay AID624296 (National Center for Advancing Translational Sciences (NCATS), 2012):
The campaign covered roughly 350,000 compounds. About 9,900 (2.8%) were called active. This list was built around the results that the source calls inconclusive (neither active nor inactive); the mix of calls is not that of the screen. Calls come from the whole dose curve; as a rule, active = well fitted activation curve with a large enough effect; inconclusive = small, poorly fitted or top-dose-only effect; inactive = no such curve, though single readings can be large or run the other way. Potencies of inconclusive entries are left out as doubtful fits.

Experiment: A quantitative high throughput screen for small molecules that induce DNA re-replication in MCF 10a normal breast cells. Note: nearly all actives have a fitted effect of over 50% in size.
Conditions: MCF 10A DNA re-replication, Hoechst nuclear intensity, 48 h; series mostly up to 46.1 µM
Potency is the fitted concentration of half-maximal effect; tags give direction and shape of the fitted curve.

Row | SMILES | Potency
1 | CC(C)(C)NC(=O)NC(=O)COC(=O)c1ccc(OC(F)F)cc1 | inactive
2 | CSc1ccc(NC(=O)NCCCN2CCN(c3ccccc3F)CC2)cc1 | inactive
3 | CCOC(=O)C1=C(c2ccccc2)NC(=O)NC1c1cc(OC)c(O)c([N+](=O)[O-])c1 (stereo unspecified) | inactive
4 | O=C(Nc1cnn(Cc2ccc(Cl)cc2)c1)c1cccs1 | inconclusive [activator, single point]
5 | O=C(CCCn1cc([N+](=O)[O-])cn1)Nc1ccc2c(c1)OCO2 | inactive
6 | CCNC(=S)NNC(=O)c1csc2ccccc12 | inactive
7 | CC(=O)N1CCN(S(=O)(=O)c2cccc(C(=O)OCc3ccc(C(C)(C)C)cc3)c2)CC1 | inconclusive [activator, single point]
8 | S=C(Nc1ccccn1)Nc1ccccc1Cl | inactive
9 | Cc1cc(OC(=O)c2c(Cl)cccc2Cl)nc(C)n1 | inconclusive [activator, single point]
10 | CCOC(=O)c1cc(-c2ccco2)nn1-c1ccc(C)cc1 | inconclusive [activator, single point]
11 | COC(=O)c1ccc(C)c(NC(=O)c2ccc(Cl)c([N+](=O)[O-])c2)c1 | inconclusive [activator, single point]
12 | CCOC(=O)Nc1ccc2c(c1)C(=NO)c1ccccc1-2 | inconclusive [activator, single point]
13 | c1ccc(Sc2cccc3ccccc23)c(CNC2=NCCN2)c1 | inconclusive [activator, partial curve, poor fit]
14 | O=C(c1ccc(Cl)cc1Cl)N1CCN(c2ccc(N3CCOCC3)nn2)CC1 | inactive
15 | CCCC(C)c1nnc(NC(=O)C2CCCO2)s1 (stereo unspecified) | active: 5.17 µM
16 | Cc1cccc(Oc2sc(C(=O)c3ccccc3)c(N)c2C#N)c1 | inconclusive [activator, single point]
17 | CCN(CCn1cccn1)C(=O)CCc1nnc(C2(c3ccc(Cl)cc3)CCC2)o1 | inactive
18 | COc1ccccc1NS(=O)(=O)c1ccc(C(=O)NCC(c2cccs2)N2CCOCC2)cc1 (stereo unspecified) | inactive
19 | O=C(OCC(=O)c1cccs1)c1ccc(NC(=O)c2ccco2)cc1 | inconclusive [activator, single point]
20 | C[n+]1c2n(c3ccccc31)N=C(c1ccc(Br)cc1)CS2 | inconclusive [activator, partial curve, poor fit]
21 | O=C(NCCc1ccccc1Cl)C1CC(=O)N(C2CCCCC2)C1 (stereo unspecified) | inactive
22 | C[C@H]1CN([C@@H](C)CO)C(=O)c2cccc(NC(=O)C3CC3)c2O[C@H]1CN(C)Cc1ccc(C(F)(F)F)cc1 | inactive
23 | COc1ccc(/C=C/c2c([N+](=O)[O-])c(=O)n(C)c(=O)n2C)c(OC)c1 | inactive

Row | SMILES | Potency
24 | NC1=NN=C(c2ccc3c(c2)OCCO3)CS1 | inconclusive [activator, single point]
25 | CC(C)NC(=O)c1cc(-c2ccco2)nn1-c1ccc(Cl)cc1 | inactive
26 | COc1ccc(OC)c(CN(CCN2CCOCC2)C(=O)Nc2cccc(Cl)c2)c1 | inactive
27 | S=c1[nH]nc(COc2ccccc2)n1/N=C/c1cccc(Br)c1 | inconclusive [activator, single point]
28 | Cc1ccc(N/N=C(/Sc2nnnn2-c2ccccc2)C(=O)c2ccccc2)cc1 | inconclusive [activator, single point]
29 | CC1=NN(c2ccc(C)cc2)C(=O)/C1=C\c1ccc(Br)s1 | inactive
30 | COc1ccc(C)cc1NC(=O)CN1CCN(S(=O)(=O)c2ccc(C(C)C)cc2)CC1 | inconclusive [activator, single point]
31 | Cc1nn(-c2ccccc2)c(N2CCCC2)c1/C=N/NC(=S)Nc1ccccc1C(F)(F)F | inconclusive [activator, partial curve, poor fit]
32 | Cc1ccc(SC[C@H](Cc2ccccc2)N2CCN(C)CCC2=O)cc1 | inconclusive [activator, single point]
33 | C[C@H](CO)N1C[C@H](C)[C@@H](CN(C)C(=O)Nc2ccc(C(F)(F)F)cc2)Oc2ccc(NC(=O)Nc3ccc(C(F)(F)F)cc3)cc2C1=O | inactive
34 | CCOC(=O)c1c(C)[nH]c(C)c1S(=O)(=O)N1CCN(c2cccc(C)c2)C(C)C1 (stereo unspecified) | inactive
35 | Oc1ccc(N=C/C=C/c2cccc(Br)c2)cc1-c1nc2ccccc2s1 | inconclusive [activator, single point]
36 | CCCCCCCNC(=O)C1(CC2CC(c3cccc(Br)c3)=NO2)CCN(C(=O)CCCCCBr)CC1 (stereo unspecified) | inconclusive [activator, single point]
37 | CC(Nc1nc(-c2ccc(F)cc2)cs1)c1nc2cc(Cl)c(Cl)cc2n1CCCO (stereo unspecified) | inconclusive [activator, single point]
38 | FC(F)(F)c1ccc(N2CCOCC2)c(Nc2nc3ccccc3n3cnnc23)c1 | active: 23.1 µM
39 | CC1CN(C(=O)c2ccc(COc3ccccc3Cl)o2)CC(C)O1 (stereo unspecified) | inconclusive [activator, partial curve, poor fit]
40 | Cc1nn(Cc2ccc(C(=O)Nc3ccccc3C(F)(F)F)o2)c(C)c1Br | inconclusive [activator, single point]
41 | Cc1cc(NC(=O)CSc2ccc(-c3nc4cc(C)c(C)cc4[nH]3)cn2)no1 | active: 0.184 µM
42 | CCCC(=O)NC(c1ccc(C(C)C)cc1)c1ccc2cccnc2c1O (stereo unspecified) | inconclusive [activator, partial curve]
43 | CCn1cc(C(=O)NCCc2ccc(Cl)cc2)c(=O)c2ccc(C)nc21 | inconclusive [activator, single point]
44 | Cc1cccc(NC(=O)c2ccccc2-c2ccccc2)c1 | inactive
45 | O=C(NCC1(N2CCCCC2)CCCCC1)c1cccc(S(=O)(=O)Nc2ccc(F)cc2)c1 | inconclusive [activator, single point]
46 | CCC(C)NCCCOc1ccc(C)cc1OC (stereo unspecified) | inconclusive [activator, partial curve, poor fit]
